Repeats are few or missing, and single values can be far off.
Columns and labels:
[1] = system: CHO-K1; experiment: micronucleus frequency (% of nucleated events); higher = more micronuclei (genotoxic)
[2] = system: CHO-K1; experiment: hypodiploid nuclei frequency (% of nucleated events); higher = more hypodiploid events (aneugenic)
Method: (§1)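 Flow-cytometric in vitro micronucleus assay (Litron MicroFlow) in CHO-K1 cells in 96-well plates, 19 concentrations (4.5-200 µM, n=1 per concentration). Without S9, cells were exposed for 24 h and sampled at 48 h. With Aroclor 1254-induced rat liver S9, cells were exposed for 3-4 h and sampled at 27-28 h. Read-outs are %MN and %hypodiploid nuclei relative to nucleated events, and relative survival as the nuclei-to-bead ratio versus the 1% DMSO vehicle control (x100).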

[3] = system: CHO-K1; experiment: relative survival (nuclei to bead ratio vs DMSO control) (% of vehicle control); higher = more surviving cells
Method: as §1
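Throughout, for hypodiploid nuclei frequency (% of nucleated events): hypodiploid nuclei gated on a flow cytometer with 488 nm excitation after SYTOX Green staining, cultures at 37 °C, positive controls vinblastine without S9 and cyclophosphamide with S9.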
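Throughout, for micronucleus frequency (% of nucleated events): cells lysed with nuclei stained by SYTOX Green, then micronucleus-gated events counted against nucleated events by flow cytometry with 488 nm excitation.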
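Throughout, for relative survival (nuclei to bead ratio vs DMSO control): Lysed-cell nuclei stained with SYTOX Green and counted against counting beads by flow cytometry at 488 nm excitation, with vinblastine (no S9) and cyclophosphamide (plus S9) as positive controls.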

C/C=C/C=C/C(=O)O [Sorbic acid]
Settings | hypodiploid nuclei frequency, [2] [%] | micronucleus frequency, [1] [%] | relative survival, [3]
concentration: 4.53 (µM), S9 metabolic activation: with S9, exposure time: 3-4 hours | 0.28 | 1 | 94
concentration: 4.53 (µM), S9 metabolic activation: without S9, exposure time: 24 hours | 0.66 | 1.32 | 132
concentration: 5.66 (µM), S9 metabolic activation: with S9, exposure time: 3-4 hours | 0.22 | 0.62 | 84.2
concentration: 5.66 (µM), S9 metabolic activation: without S9, exposure time: 24 hours | 0.62 | 1.18 | 135
concentration: 7.07 (µM), S9 metabolic activation: with S9, exposure time: 3-4 hours | 0.2 | 1.46 | 84.5
concentration: 7.07 (µM), S9 metabolic activation: without S9, exposure time: 24 hours | 0.56 | 1.4 | 130
concentration: 8.84 (µM), S9 metabolic activation: with S9, exposure time: 3-4 hours | 0.24 | 1.5 | 93.2
concentration: 8.84 (µM), S9 metabolic activation: without S9, exposure time: 24 hours | 0.46 | 1.28 | 119
concentration: 11.1 (µM), S9 metabolic activation: with S9, exposure time: 3-4 hours | 0.3 | 1.28 | 87.8
concentration: 11.1 (µM), S9 metabolic activation: without S9, exposure time: 24 hours | 0.96 | 1.8 | 136
concentration: 13.8 (µM), S9 metabolic activation: with S9, exposure time: 3-4 hours | 0.36 | 2.02 | 82.6
concentration: 13.8 (µM), S9 metabolic activation: without S9, exposure time: 24 hours | 0.88 | 1.8 | 137
concentration: 17.3 (µM), S9 metabolic activation: with S9, exposure time: 3-4 hours | 0.26 | 1.48 | 110
concentration: 17.3 (µM), S9 metabolic activation: without S9, exposure time: 24 hours | 0.72 | 1.7 | 119
concentration: 21.6 (µM), S9 metabolic activation: with S9, exposure time: 3-4 hours | 0.28 | 1.74 | 109
concentration: 21.6 (µM), S9 metabolic activation: without S9, exposure time: 24 hours | 0.48 | 1.36 | 141
concentration: 27 (µM), S9 metabolic activation: with S9, exposure time: 3-4 hours | 0.16 | 1.26 | 108
concentration: 27 (µM), S9 metabolic activation: without S9, exposure time: 24 hours | 0.48 | 1.6 | 118
concentration: 33.7 (µM), S9 metabolic activation: with S9, exposure time: 3-4 hours | 0.14 | 0.96 | 120
concentration: 33.7 (µM), S9 metabolic activation: without S9, exposure time: 24 hours | 0.58 | 1.84 | 107
concentration: 42.2 (µM), S9 metabolic activation: with S9, exposure time: 3-4 hours | 0.19 | 0.86 | 90.5
concentration: 42.2 (µM), S9 metabolic activation: without S9, exposure time: 24 hours | 1.3 | 2.82 | 115
concentration: 52.7 (µM), S9 metabolic activation: with S9, exposure time: 3-4 hours | 0.16 | 1.14 | 79.7
concentration: 52.7 (µM), S9 metabolic activation: without S9, exposure time: 24 hours | 1.2 | 3.24 | 128
concentration: 65.9 (µM), S9 metabolic activation: with S9, exposure time: 3-4 hours | 0.21 | 1.32 | 58
concentration: 65.9 (µM), S9 metabolic activation: without S9, exposure time: 24 hours | 3.64 | 7.1 | 80.1
concentration: 82.3 (µM), S9 metabolic activation: with S9, exposure time: 3-4 hours | 0.22 | 1.64 | 87.8
concentration: 82.3 (µM), S9 metabolic activation: without S9, exposure time: 24 hours | 6.98 | 12.3 | 55.6
concentration: 103 (µM), S9 metabolic activation: with S9, exposure time: 3-4 hours | 0.22 | 1.46 | 77.8
concentration: 103 (µM), S9 metabolic activation: without S9, exposure time: 24 hours | 9.22 | 18.4 | 41.4
concentration: 129 (µM), S9 metabolic activation: with S9, exposure time: 3-4 hours | 0.25 | 2.35 | 64.7
concentration: 129 (µM), S9 metabolic activation: without S9, exposure time: 24 hours | – | – | 34.1
concentration: 161 (µM), S9 metabolic activation: with S9, exposure time: 3-4 hours | 0.36 | 2.32 | 72.3
concentration: 161 (µM), S9 metabolic activation: without S9, exposure time: 24 hours | 3.34 | 3.6 | 43.1
concentration: 201 (µM), S9 metabolic activation: with S9, exposure time: 3-4 hours | – | – | 37.6
concentration: 201 (µM), S9 metabolic activation: without S9, exposure time: 24 hours | 2.11 | 3.14 | 40.2
